# In the supplement of paper PMC3334620:
# The full ranking holds about 33,000 sequences; the median of “E-score (-0.5 to 0.5)” is about -0.035, and the highest 2% start at about 0.34. The list shows a part of the results.
# Target: T1, Mot3 (UniProt P54785)
# T1 sequence: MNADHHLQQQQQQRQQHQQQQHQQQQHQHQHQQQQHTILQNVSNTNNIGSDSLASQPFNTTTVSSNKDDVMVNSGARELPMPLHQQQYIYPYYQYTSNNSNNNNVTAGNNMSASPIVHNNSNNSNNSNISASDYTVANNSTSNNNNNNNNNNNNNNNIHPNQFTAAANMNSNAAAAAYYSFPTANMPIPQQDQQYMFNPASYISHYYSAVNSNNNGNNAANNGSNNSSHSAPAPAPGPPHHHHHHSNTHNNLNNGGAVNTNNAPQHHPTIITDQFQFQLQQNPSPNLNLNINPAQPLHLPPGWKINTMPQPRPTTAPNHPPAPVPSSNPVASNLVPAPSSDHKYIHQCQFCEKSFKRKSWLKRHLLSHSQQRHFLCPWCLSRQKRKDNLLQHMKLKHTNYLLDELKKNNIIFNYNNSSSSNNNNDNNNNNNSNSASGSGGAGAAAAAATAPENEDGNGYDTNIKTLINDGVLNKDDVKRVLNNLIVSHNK
# Assay: PBM E-score (8-mer binding enrichment) (E-score (-0.5 to 0.5)); higher = stronger / more preferred TF binding; most listed sequences are background and not binding sites
# Settings: protein concentration: 200 nM; construct: GST-full length
# In short: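 The E-score, a modified Wilcoxon-Mann-Whitney statistic, was computed by the Universal PBM Analysis Suite for every ungapped eight-base word pooled with its reverse complement. Scans behind it were normalised with masliner after bound GST-tagged yeast transcription factors were detected with fluorescent anti-GST. The proteins, at about 100-200 nM, had been applied to universal all-10-mer Agilent arrays made double-stranded by primer extension.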
row,Sequence,PBM E-score
1,GAATGACA,0.188
2,GTAAGCGA,0.0864
3,CCATAAAC,-0.0801
4,CAGGTAAG,0.271
5,CGAGCTCA,-0.249
6,AGGCGGTA,-0.00409
7,ATTACAAG,0.388
8,CACGGGGA,0.00419
9,ACATTATA,0.16
10,CTCTTCCA,-0.0461
11,GCTAATAC,0.102
12,CCGTATCA,0.0442
13,ATGAATCA,0.0766
14,GACAAGTC,-0.0108
15,TTGATAAA,0.157
16,ATAACGGG,-0.0475
17,GGTTACGA,-0.133
18,ATGGGGTG,-0.101
19,CAGCGAAA,-0.0229
20,CACTTTAC,0.174
21,ATTAAGGC,0.378
22,CGTCTAAC,-0.0212

row,Sequence,PBM E-score
1,CTAATCAA,0.0869
2,AGGACGCC,0.133
3,CCCTTTCA,0.0272
4,GTGGCCTA,0.0303
5,AAACAAAG,0.243
6,ATGGATAC,0.183
7,AAGTAAAC,0.0956
8,GTCGCCAC,-0.264
9,AGGCACCG,0.491
10,GAGAGGCA,0.239
11,CCACACCA,-0.118
12,CGATAGTC,-0.0497
13,TCATTTAA,0.00818
14,CGTGGCAA,-0.0326
15,GTACCGAC,-0.0363
16,AGAACTCT,-0.145
17,TCTGGTAA,-0.0343
18,CTGTTTAA,0.119
19,ATACCGGC,-0.0877
20,AGTACGGG,-0.294
21,TAAGCTAA,-0.0354
22,CCTTCGTA,0.131

row,Sequence,PBM E-score
1,CTTTCGGC,-0.191
2,CACATCTG,-0.0964
3,AATCGCAA,-0.126
4,CGACTTAC,-0.127
5,GGATTGGA,-0.0979
6,ACAGTAAA,0.119
7,AAGGGCAG,-0.104
8,GAGTGACC,-0.334
9,GGCAATTA,0.247
10,CCGTTGAA,-0.155
11,CAGAATCC,-0.127
12,ACTAAACC,0.139
13,ACGAGTGC,0.106
14,ATCGGCTA,-0.0778
15,TATAACGA,0.115
16,CCCACCTA,-0.118
17,CATATAGC,-0.0609
18,GCGTAACC,0.135
19,CGCCACCA,-0.198
20,ATGGTTAC,0.139
21,GAAGAAAA,-0.0111
22,GCCACCGC,-0.339

row,Sequence,PBM E-score
1,ATCGGTTA,-0.00545
2,CCCTGGCC,-0.264
3,CTTTATTC,-0.0507
4,GTTTATAA,0.15
5,CGACCTAA,-0.0677
6,CGAGTCTC,-0.298
7,CACCCCTC,-0.0821
8,AGAAGAGG,-0.173
9,ATAACTAC,0.179
10,ACCCGTGC,-0.0819
11,CCTGCAGG,0.413
12,CAAGATTG,0.123
13,CATAGTCA,0.0214
14,ATGCCTGG,0.127
15,ACCTAAAC,0.169
16,CCCATACA,0.164
17,ATTGCAGC,-0.178
18,ACAGCGGG,-0.173
19,ACTTGCAT,0.0134
20,GCTACGTA,0.195
